Over roughly 33,000 sequences, “E-score (-0.5 to 0.5)” has its median near -0.036; the highest 2% begin near 0.37. Some of the results follow.
What follows are sequences tested against T1, Yer064c (UniProt P40041) (assay: PBM E-score (8-mer binding enrichment) (E-score (-0.5 to 0.5)); higher = stronger / more preferred TF binding; most listed sequences are background and not binding sites). Conditions: protein concentration: 200 nM; construct: GST-full length.
T1 sequence: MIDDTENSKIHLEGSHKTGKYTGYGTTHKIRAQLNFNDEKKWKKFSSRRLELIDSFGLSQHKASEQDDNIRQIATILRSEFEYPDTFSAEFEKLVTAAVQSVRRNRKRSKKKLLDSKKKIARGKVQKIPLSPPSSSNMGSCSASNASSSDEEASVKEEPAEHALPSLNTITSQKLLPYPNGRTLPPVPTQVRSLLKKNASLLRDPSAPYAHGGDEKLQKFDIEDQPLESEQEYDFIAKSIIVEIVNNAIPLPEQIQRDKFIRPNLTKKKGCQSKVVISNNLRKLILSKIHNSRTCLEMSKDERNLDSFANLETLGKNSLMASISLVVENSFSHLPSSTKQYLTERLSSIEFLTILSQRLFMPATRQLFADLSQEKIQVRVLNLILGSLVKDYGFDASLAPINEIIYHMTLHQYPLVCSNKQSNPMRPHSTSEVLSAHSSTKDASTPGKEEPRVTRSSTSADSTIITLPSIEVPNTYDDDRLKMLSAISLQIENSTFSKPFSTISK
Outline: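 The E-score, a modified Wilcoxon-Mann-Whitney statistic, was computed by the Universal PBM Analysis Suite for every ungapped eight-base word pooled with its reverse complement. Scans behind it were normalised with masliner after bound GST-tagged yeast transcription factors were detected with fluorescent anti-GST. The proteins, at about 100-200 nM, had been applied to universal all-10-mer Agilent arrays made double-stranded by primer extension.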

| Sequence | PBM E-score |
| --- | --- |
| CTTCTTAC | -0.0554 |
| AATGAACG | -0.112 |
| AATACGAG | 0.122 |
| AACCATCC | 0.268 |
| AACCTACC | -0.192 |
| AACAAAAT | -0.079 |
| CAGGCTCC | -0.087 |
| AGGAGGAC | -0.111 |
| CCGCTCTA | -0.151 |
| CTGGGGGA | -0.129 |
| CAATGGGG | -0.14 |
| CGAACACC | -0.0246 |
| CATAGTTC | -0.0534 |
| GCCTTCCC | -0.305 |
| TCGTACGA | 0.0763 |
| GCATGGCC | -0.271 |
| AACCACGG | 0.179 |
| ATATAATC | 0.179 |
| ATTGGGCC | -0.2 |
| CCCAGCGG | -0.163 |
| CGGCATTA | -0.0404 |
| CGCATTAA | 0.0209 |

| Sequence | PBM E-score |
| --- | --- |
| AACCTTGG | -0.177 |
| CCTCCTGC | -0.138 |
| CAACCCAG | -0.181 |
| CTGGACAA | 0.0732 |
| CGACAAAA | 0.0755 |
| ACCACCGA | -0.158 |
| GGTTCAGA | 0.0025 |
| GGTTTTGA | -0.011 |
| TCTGCCCA | -0.146 |
| AGTGCGAT | -0.0764 |
| TCAATAAA | 0.171 |
| CCGATACC | -0.285 |
| TCCAGAGA | -0.0134 |
| AGAGGACC | -0.235 |
| CTTTTGGA | -0.0676 |
| CCCTCACA | -0.248 |
| ACCATCTC | -0.0631 |
| ATTCAGGA | 0.106 |
| CCATATGA | 0.0961 |
| ATAGAGGC | -0.188 |
| AAAGAACT | -0.0554 |
| GCATGGTA | -0.143 |

| Sequence | PBM E-score |
| --- | --- |
| AGTATCGC | -0.159 |
| CTTCACGA | -0.133 |
| GTATCGAA | -0.00179 |
| CTTTTCGA | -0.0304 |
| CGAACAAA | 0.0495 |
| TATTCGCA | -0.0943 |
| CCCACCGC | -0.11 |
| CAGCGAAG | 0.0763 |
| GACCTCAA | 0.074 |
| ATCTCCTG | -0.0068 |
| GCGGCGCC | -0.318 |
| GCTCGAAA | -0.134 |
| ATTGTTCG | 0.164 |
| GCACGCCA | -0.154 |
| CAACCGAG | -0.193 |
| TCTCTAAA | -0.0284 |
| TGGACACA | -0.102 |
| GCAGGGTA | -0.274 |
| ATGAGGTG | -0.189 |
| AATCCCTG | 0.0412 |
| ATCGCTCG | -0.0343 |
| ACGATAAC | -0.0162 |

| Sequence | PBM E-score |
| --- | --- |
| ACTACACT | 0.157 |
| TTTATAAA | 0.0537 |
| ACTGGAAC | 0.0191 |
| AAGCCAGT | 0.0361 |
| AGTCGATG | 0.249 |
| AAGACGAG | -0.105 |
| ACTCGCGG | 0.163 |
| AGGGAGGC | -0.221 |
| CGATGATC | 0.155 |
| ATGTCACG | -0.123 |
| GAGGCAAA | -0.197 |
| AGCGTTGA | -0.119 |
| GACGGTGC | -0.325 |
| GTGGCCAC | -0.0356 |
| CGGTTAAA | 0.0362 |
| ACTGCATC | 0.253 |
| GAGGTTGA | 0.0123 |
| CCTAGCGA | -0.0137 |
| ATTATAAA | 0.156 |
| GACTCAGA | 0.458 |
| AATTTGAC | 0.137 |
| AAGCCCCG | -0.131 |

| Sequence | PBM E-score |
| --- | --- |
| TACCGAGA | 0.146 |
| CAGACCAC | -0.164 |
| TTGAGCAA | -0.0255 |
| GAGTACGC | 0.229 |
| GCAGAGAC | 0.159 |
| GTACTGAC | 0.283 |
| GCGATTCC | 0.143 |
| ACATACCT | -0.14 |
| CTTACAAG | -0.138 |
| AAATTTGA | 0.114 |
| CCCCGTTA | -0.0142 |
| AGGAGGTC | -0.207 |
| CAGCCCAG | -0.326 |
| AACGCTCT | -0.203 |
| AACTACGG | -0.351 |
| CGATCTTC | -0.277 |
| AGATGGTC | -0.295 |
| TATTCCCA | 0.00714 |
| CAGAGTCA | 0.469 |
| GGCCCTAA | -0.174 |
| CGGATCCG | -0.104 |
